# According to PubChem BioAssay (NCI):
# More than one record can exist for a structure, and the calls need not agree.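 In brief: 96-well plates, 48 h treatment, single concentration, percent growth endpoint.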 A number of entries come with more than one value. This is not the full list of results. The source may hold further records. Rule for the calls: active = growth percent below 10; inactive = the rest. These are repeated runs of one drug, at the concentration stated with the values; each value is one run. Marks such as (2×) stand for listed records that agree.
# Assays:
# Assay in all cases: NCI-60 one-dose screen, 48 h (100 = growth as untreated, 0 = no growth, -100 = all killed)
# Details in all cases: 2.5 mM
# HCT-116 colon = tested on: HCT-116 colon
# HCC-2998 colon = tested on: HCC-2998 colon
# KM12 colon = tested on: KM12 colon
structure (smiles),measurement,setting,value
O=c1[nH]cc(F)c(=O)[nH]1,growth,HCT-116 colon; runs of 1999,"inactive: 15.2% and active: -44.7, -6.05, -73.2, -19.5, -32.3, -100 (3×), -63.2, -76.6, -79.7, -90.9, -61.8, -78.8, -79.5%"
same,growth,HCT-116 colon; runs of 2000,"active: -91, -60.3, -78.5, -54.1%"
same,growth,HCC-2998 colon; runs of 1991,"active: 9.62, 3.54, 1.5, 8.27, -4.68, 9.09, -3.36% and inactive: 23.9, 33.9, 19.1, 19, 28.7, 12.2, 23.1, 29.1, 21.9, 17.3%"
same,growth,HCC-2998 colon; runs of 1992,"inactive: 14.1, 11.3, 33.6, 26.6 (3×), 14.6 (2×), 14.7 (2×), 21.4, 34.8, 21.8, 68.4, 25.4, 40.5, 19.7, 10.4, 24.5, 13, 15.2, 41.5, 40, 10.7, 13.4, 15.7, 18.6, 20.4, 17, 15.1, 10.8, 47.2, 25.5, 26.5, 15.4, 14.3 (2×), 34.4, 37.7, 14.5, 16.5 (2×), 23.9, 21.5, 22.9, 10.5, 16.3, 14.9, 43.7, 37.1, 18.8, 62.2, 48.4% and active: 4.74, -23.9, -11.9, 4.9, 8.37, -6.63, -23.1, -26.1, -28.1, -4.61, -12.3, 1.02, -27.6, 6.48, 1.5, -12, 0.967, -5.8, 7.46, 6.56, 6.6, -7.31, 6.04, -6.01, 7.29, -16.9, -5.33, -4.54, 7.19, 9.95, 3.38, 7.48, 0.461, 8.96, -3.94, -25.9, 5.26, -29.5, -22.9, -15, -2.48, -30.3, 6.5, 5.36, 0.601, -28.3, 1.1, -4.72, -27.4, -5.67, -11.6, 1.64, 5.29, -18.4, 5.68, 7.36, 8.22, -10.9, 3.45, 7.97, -5.24%"
same,growth,HCC-2998 colon; runs of 1993,"inactive: 25.1, 16, 27.4, 26, 15.6, 40.9, 30.7, 10.8, 15.7, 30.6, 29.7, 23.4, 43.8, 22.4, 10.1, 26.2, 19.5, 56.1, 20.2, 12, 28.1, 46.3, 39.9, 104, 25.6, 13.6, 59.9, 23.6, 18.7, 39.5, 30.3, 42.2, 19.8, 36.8, 28.6% and active: 1.67, 1.68, -5.15, -11.9, 5.85, -15.1, 5.28, 6.49, 8.26, 3.89, 6.3, 5.94%"
same,growth,HCC-2998 colon; runs of 1994,"inactive: 33.8, 31.7, 52.5, 37.9, 25, 13.9 (2×), 15.5, 55.6, 51.4, 30.1, 20.9, 26.9, 18.6, 14.4, 13.8, 27.8, 45.9, 21.5% and active: 3.17, 5.57, 9.73, 5.27, 9.05, -12.8, -38.1, -13, 4.64, -47.2, -6.72, -5.11, -49.2, -19%"
same,growth,HCC-2998 colon; runs of 1995,"inactive: 55.3, 23.3, 18.6, 22.8 (2×), 36.1, 30.8, 33, 21.3, 68.3, 19.9, 16.3, 17.7, 33.8, 15.3, 67.7, 23, 35, 20.7, 36.6, 26.2% and active: 8.67, 4.1, -4.39, -26.5, 9.99, -6.47, -5.58, -2.53, -35.7, 3.39, 1.71, 7.41, 7.24, -25.2, -22.7, 8.36, -18%"
same,growth,HCC-2998 colon; runs of 1996,"inactive: 32.9, 31.4, 13.5, 13.2, 24.1 (2×), 27 (2×), 27.2, 23.9, 29.8, 23, 30.1, 21.5, 25, 33.2, 47.6, 21.6, 27.8, 17.9, 22.6, 33.3, 20.8, 18.5, 44.5, 26.6, 16.7, 15, 24.9, 24.2, 21.7, 20.6, 14.1, 36.5, 23.2, 25.8, 40.3, 23.7, 10.7, 28.2, 17.3% and active: 8.45, 7.45, -2.36, 4.94, 7.49, -30.3, -51.4, 0.916, -3.36, 3.97%"
same,growth,HCC-2998 colon; runs of 1997,"inactive: 14.7 (2×), 18.6, 22.7 (2×), 25.3, 37.9, 102, 12.5, 11.9, 50.4, 42.1, 19.8, 23.9, 17.6, 24.3, 38.3, 33.8, 30.5, 31.9, 26.2, 21.8, 11.2, 29.5, 21.6, 13.5, 11.6, 18.9, 33.9, 39.7, 31.2, 16% and active: -44.8, -25.7, -49, -58.5, 4.14%"
same,growth,HCC-2998 colon; runs of 1998,"inactive: 17.1, 35.3, 33.4, 37.4, 31.1, 45.3, 31.2, 27.9, 10.4, 36.9, 33.5, 24.2, 38.8, 34.5, 16.6, 42, 14.5, 25.8, 11.1% and active: -22.1, 6.85, -22.3, -27.7%"
same,growth,HCC-2998 colon; runs of 1999,"inactive: 45.1%, 32% and active: -5.18, -13.8, 0.74, -69.7, -100, -73.3%"
same,growth,HCC-2998 colon; runs of 2000,"active: -93.3%, -69.8%, 2.94%"
same,growth,KM12 colon; runs of 1991,"active: 9.26, 6.77, -61.3, -100, -0.778, -46.1, -50% and inactive: 21.9 (2×), 12.2, 19.3, 20.7, 24.4, 14.1, 14.4, 16.4, 15.3, 18.9, 25.4%"
same,growth,KM12 colon; runs of 1992,"active: 9.77, 2.05, -61.8, -30, 2.38, 4.41, -7.6, 4.33, 5.15, -34.8, -63.8, 2.39, -73.1, -27, 7.05, 7.96, 7.53, -16.7, -29.3, -14.5, -48, 4.54, -53, 9.23, -44.4, 6.67, 4.55, 7.48, 8.59, 5.83, 4.13, -26.1, 5.72, 4.9, 4.3, 2.74, 6.97, -37.8, -58.3, 9.82, 0.0319, 7.56, -13.7, 8.06, 9.37, 4.23, 7.18, 3.86, -58.7, -29.9, -29.8, -52.2, 2.76% and inactive: 16.6 (2×), 19.8, 18.4, 24, 29.4, 46.7, 17.4, 16.5, 10.8 (2×), 19.5, 27.4, 19.4, 21.5, 18.2, 20.6, 27.9, 11.3, 17.8, 18.9, 27.6, 19, 96.4, 13.2, 11.4, 15.3, 14.3 (2×), 20.4, 12.9, 19.7, 24.3, 14.8, 21.1, 10.2, 24.1, 11.9, 13.1, 19.6, 16.7, 32.5, 17.3, 23.1, 13.8, 23.6, 11.2, 10.4, 17.5%"
same,growth,KM12 colon; runs of 1993,"inactive: 18.4 (2×), 18.9, 19.2 (2×), 12, 17.3 (2×), 21, 21.1, 18.1 (2×), 16.3, 33.1, 19.7, 15.2, 15.9, 14.1, 21.6, 21.9, 16, 22.4, 16.9, 15.3, 17, 10.2, 20.6, 14.5, 21.3, 12.6, 88.3, 11.6 (2×), 104, 16.4, 13.2, 18, 15.5, 25.9, 49.8% and active: 3.27, 3.05, 0.805, 4.87, 8.09, -5.09, 0.484, -7.06, 3.87%"
same,growth,KM12 colon; runs of 1994,"inactive: 20.1, 22, 15.3, 20, 28, 85.9, 24.3, 13.5, 20.9, 51.3, 12.4, 23.6, 12.3, 21.9, 15.9, 14.9, 25.5, 15.2% and active: 7.89, -10.7, 8.7, -2.27, 4.62, -26.1, 5.06, -27.7, -25.3, -1.8, 1.75, -0.351, -29, -4.74, 5.62%"
same,growth,KM12 colon; runs of 1995,"inactive: 23, 16.1, 17.7, 17.3, 12.1, 20.6, 25.9, 14.7 (2×), 15.9, 10.1, 10.8, 20.2, 17.8, 20.4% and active: -37.1, -19.8, 3.32, 8.09, 3.09, 6.66, 2.67, -10.7, 1.82, 9.1, 8.86, 7.97, -44, 6.46, -0.623, 1.56, 9.61, 6.65, 2.79, -12, -21.3, 6.83, -29.8, 6.27, 3.97%"
same,growth,KM12 colon; runs of 1996,"inactive: 20.4, 21.5, 16.6, 26.3, 20.2, 11.8, 13, 12.6, 13.6, 16.9, 11.4, 18.4, 20.3, 17, 17.3, 14.5, 18.1, 12.8, 19.5, 11.1, 12.4, 10, 13.4, 13.1, 15.1, 14.6, 12.5, 24.3, 14, 10.5, 25.8, 22, 35.6, 12.1, 14.3, 30.7% and active: 5.73, -28.7, -2.76, 8.44, 5.58, 2.27, 8.72, 6.3, 6.33, 8.18, 9.14, 7.61, 7.65, 5.33, 2.19, -28.6, -21.3, 0.386, 6.16, -2.91, -1.42, 9.58, -18.3%"
same,growth,KM12 colon; runs of 1997,"inactive: 11.6, 33, 33.7, 16.6, 26.9, 20, 14, 10.9, 14.8, 13.8, 33.3, 17.8, 11.5, 20.1, 11.3, 16.4, 21.3, 11.8, 27.1, 14.4, 17.9% and active: 4.63, -16, 7.23, 8.56, -6.31, -39.5, -6.48, -24.3, -6.33, 10, 3.29, -40.7, 0.687, -4.57, 7.73, 7.52, 6.17, 9.75, 7.48, 4.21%"
same,growth,KM12 colon; runs of 1998,"inactive: 21.7, 25.5, 10.5, 20.9, 16.1, 30.8, 18.1, 16.2, 12.9, 17.7, 16, 31.9, 52.7, 28% and active: 4.75, 0.976, -13.9, -4.12, -14.3, -3.6, 3.43, 5.31, -49.6, 6.55, 3.02, 1.67%"
same,growth,KM12 colon; runs of 1999,"inactive: 41.1, 23.2, 25.4, 16.5% and active: -8.46, -6.88, 9.17, -78.7, 3.81, -36.5, 0.784, -19.4, -100, -56%"
same,growth,KM12 colon; runs of 2000,"active: 6.51, -91.2, -39.1, 1.96%"
